According to PubChem BioAssay AID760 (NMMLSC, 2007):
About 360 (0.19%) of roughly 190,000 compounds were called active. This list was built around the results that the source calls inconclusive (neither active nor inactive); the mix of calls is not that of the screen.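 How the source made its calls: active means GTP binding activity at least 20 points away from 100%, either lowered or raised; inconclusive means signal likely due to the compound's own green fluorescence; inactive means the rest.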

These compounds were tested against Ras-related protein Rab-2A (Canis lupus familiaris) (UniProt P61105) (assay: Rab2 wt fluorescent GTP binding changes, either direction – biochemical, dog, bead-based flow cytometry, multiplex, primary screen (AID 760;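 further: 0% = beads with excess unlabeled GTP and 100% = no-compound control corrected for plate trend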)). Conditions: GST-Rab2 wt beads, Bodipy-GTP binding, at 10 µM.

Row | Structure (SMILES) | GTP binding activity
1 | Oc1[nH]c2ccccc2c1/C=N/c1nccs1 | inconclusive: 91%
2 | CCOC(=O)c1c(NC(=O)Cn2nc(C(=O)O)c3ccccc3c2=O)sc(CC)c1C | inactive: 96%
3 | Cc1ccc(NC(=O)/C(=C/c2cccc([N+](=O)[O-])c2)NC(=O)C2CCCCC2)cc1 | inconclusive: 89%
4 | COc1ccc(NC(=O)C(CCS(C)(=O)=O)N2C(=O)c3ccccc3C2=O)cc1 (stereo unspecified) | inactive: 103%
5 | O=C(COC(=O)Cc1ccc(S(=O)(=O)N2CCCCC2)s1)Nc1ccc2c(c1)OCO2 | inactive: 99%
6 | CCCCOC(=O)c1ccc(NC(=S)NC(=O)c2c(Br)c(C)nn2C)cc1 | inconclusive: 88%
7 | Cc1ccc(CSc2nnc(-c3ccncc3)n2CC2CCCO2)cc1 (stereo unspecified) | inactive: 99%
8 | CCN1/C(=C/C=C/C=C/c2sc3ccccc3[n+]2CC)Sc2ccccc21 | active: 57%
9 | CCCCOc1ccc(-c2nnn(CC(=O)c3c[nH]c4ccccc34)n2)cc1 | inconclusive: 106%
10 | COc1ccc(CCNC(=O)NC2CCCCC2)cc1OC | inactive: 97%
11 | CC(C)CC(=O)Nc1ccc(C(=O)Nc2cccc(O)c2)cc1 | inconclusive: 88%
12 | CN(C)c1ccc(/C=c2/sc3n(c2=O)NC2(c4ccccc4)N(C)C(=O)N(C)C2(c2ccccc2)N=3)cc1 (stereo unspecified) | inactive: 97%
13 | COc1ccc(CNc2nc3ccccc3n2Cc2ccccc2)cc1OC | inconclusive: 103%
14 | O=C1NC2(CCCCC2)N=C1c1ccccc1 | inconclusive: 106%
15 | O=C(Cn1cc(C(F)(F)F)ccc1=O)N1CCN(S(=O)(=O)c2ccccc2)CC1 | inconclusive: 104%
16 | COc1ccc(OC)c(Nc2nc(N)nc(-c3cc4ccccc4o3)n2)c1 | inconclusive: 93%
17 | CC(=O)NN1C(=O)/C(=C/c2ccc(C(C)C)cc2)SC1=S | inactive: 92%
18 | O=C1C2C3C=CC(C3)C2C(=O)N1CCN1CCN(Cc2ccc([N+](=O)[O-])cc2)CC1 (stereo unspecified) | inactive: 97%
19 | O=c1[nH]c(Nc2ccc3c(c2)OCCO3)nnc1Cc1ccccc1 | inactive: 92%
20 | COc1ccc(-c2c(C)[nH]n3c(=O)c(Cc4ccccc4)c(C)nc23)cc1 | active: 77%
21 | O=C(CCl)Nc1cccn2ncnc12 | inactive: 113%
22 | CCC(C)c1ccccc1NC(=O)CN1CCN(C/C=C/c2ccccc2)CC1 (stereo unspecified) | inconclusive: 101%
23 | CC(=O)[C@@H]1[C@@H]2C(=O)N(c3ccc(F)c(Cl)c3)C(=O)[C@@H]2C2c3ccccc3C=CN21 (stereo partly specified) | inconclusive: 105%

Row | Structure (SMILES) | GTP binding activity
24 | COCCCNCC(=O)Nc1sc(C)c(C)c1C(=O)OC | inconclusive: 105%
25 | Cc1ccc(Nc2nc(N)nc(CSc3nncn3C)n2)cc1 | inconclusive: 89%
26 | CCOC(=O)C1=C(CC)Nc2ccccc2N=C1N | inconclusive: 92%
27 | Cn1ccnc1Sc1nc(Nc2cccc(Cl)c2)nc(N2CCOCC2)n1 | inconclusive: 102%
28 | Cc1cc(NC(=O)COc2ccccc2)n(-c2ccccc2)n1 | inconclusive: 102%
29 | CC(C)(C)c1ccc(Oc2ccc(N)cc2)cc1 | inconclusive: 92%
30 | COc1ccc2cc(CN(CCO)C(=O)c3ccccc3F)c(=O)[nH]c2c1 | inconclusive: 102%
31 | O=C(NCCc1ccccc1)c1cc(=O)[nH]c2ccccc12 | inactive: 95%
32 | Nc1nc(-c2ccc3c(c2)CCC(=O)N3)cs1 | inconclusive: 94%
33 | CC(C)(C)C(=O)/C=c1\s/c(=C\c2ccc(-c3ccc([N+](=O)[O-])cc3)o2)c(=O)n1CC(=O)NC(N)=O | inconclusive: 167%
34 | O=C(/C=C/Nc1ccc(Oc2ccccc2)cc1)c1ccco1 | inactive: 97%
35 | CC(C)(C)C1=Nn2c(nnc2-c2n[nH]c3c2CCC3)SC1 | inconclusive: 95%
36 | Cc1ccc(NC(=O)Cc2ccc(Cl)c(Cl)c2)cc1S(=O)(=O)N(C)C | inconclusive: 102%
37 | Cn1c(Cn2c(=O)sc3ccccc32)nnc1SCC(=O)N1CCCC1 | inactive: 102%
38 | COc1ccc(CN2CCN(C(=O)C3CCC(CNS(=O)(=O)c4ccc(C)cc4)CC3)CC2)c(OC)c1OC (stereo unspecified) | inactive: 100%
39 | COC(=O)c1ccc(-c2ccc(/C=N/NC(=O)CC3(C)OCCCO3)o2)cc1 | inconclusive: 93%
40 | Cc1cc(NC(=O)CSc2nnc(N)s2)c([N+](=O)[O-])cc1C | inconclusive: 94%
41 | COc1ccc(Cn2c(=O)c3c(nc(NCCO)n3C)n(C)c2=O)cc1 | inconclusive: 82%
42 | CCn1cc([N+](=O)[O-])c(C(=O)Nc2ccn(Cc3ccccc3)n2)n1 | inconclusive: 99%
43 | COc1cc2c(cc1OC)-c1cc(NC3CCCCCC3)nc(=O)n1CC2 | active: 75%
44 | Cc1ccc(CNc2oc(-c3ccco3)nc2S(=O)(=O)c2ccccc2)cc1 | inactive: 99%
45 | O=C1CCC(/C=C/c2ccccc2)=NN1Cc1ccc(F)cc1 | inconclusive: 93%
46 | O=C(NCc1ccccn1)c1cc(-n2cnnc2)ccc1Cl | inactive: 102%

Row | Structure (SMILES) | GTP binding activity
47 | C#CCOc1ccc(/C=N/NC(=O)c2cccnc2)cc1OCC | inconclusive: 83%
48 | CC(C)N(C(=O)Cn1cc(SCC(=O)NCc2ccco2)c2ccccc21)C(C)C | inconclusive: 94%
49 | O=C(Cc1ccc(Br)cc1)OCC(=O)c1ccc2c(c1)OCCO2 | inconclusive: 93%
50 | CC(=O)N1CCC2(CC1)C/C(=N\NC(=S)Nc1ccc(C)cc1)c1cc(O)ccc1O2 | inactive: 97%
51 | O=C(CC1Sc2ccccc2NC1=O)Nc1ccccc1[N+](=O)[O-] (stereo unspecified) | inconclusive: 100%
52 | O=NN(CCc1ccncc1)c1ccc(OCc2ccccc2)cc1 | inactive: 94%
53 | O=C(N/N=C1\CCCc2ccccc21)C(O)c1ccccc1 (stereo unspecified) | inactive: 100%
54 | Nc1nc(N2CCCCC2)nc(N2CCCCC2)n1 | inconclusive: 107%
55 | COc1cc(OC)nc(Oc2ccccc2C(=O)Oc2ccc(F)cc2Cl)n1 | inconclusive: 97%
56 | C=CCN(CC=C)C(=O)c1ccc(OC2CCN(Cc3ccccn3)CC2)cc1 | inconclusive: 96%
57 | O=C(O)c1nn(-c2ccccc2)c(-c2ccccc2)c1C(=O)c1ccccc1 | inconclusive: 93%
58 | CSCC(=O)N1CCCC(C(=O)c2cc(F)ccc2F)C1 (stereo unspecified) | inactive: 97%
59 | CCOC(=O)c1cccc(C(=O)Nc2nc3ccc(OC)cc3s2)n1 | inactive: 96%
60 | Nc1cc(=O)[nH]n1C1CCCC1 | inconclusive: 94%
61 | CCc1ccc(N(CC(=O)NCc2ccc(F)cc2)C(=O)c2csnn2)cc1 | inconclusive: 93%
62 | Cc1ccc(NS(=O)(=O)c2cc(NC(=O)c3ccc4c(c3)NC(=O)CS4)ccc2Cl)c(C)c1 | active: 129% [activator]
63 | NS(=O)(=O)c1ccc(Nc2nc3ccccc3nc2NS(=O)(=O)c2cccc([N+](=O)[O-])c2)cc1 | inactive: 94%
64 | COc1ccc(CC2(CO)CCN(Cc3ccc(NC(C)=O)cc3)CC2)cc1 | inconclusive: 99%
65 | Cc1oc2cc(OCC(=O)O)ccc2c(=O)c1Oc1ccccc1 | inconclusive: 101%
66 | CC(=O)c1c(C)[nH]c(C(=O)OCc2ccc(F)cc2Cl)c1C | inconclusive: 99%
67 | Cc1nc(N2CCN(c3ccccn3)CC2)c2c(C)c(C(=O)Nc3ccc(F)cc3)sc2n1 | inconclusive: 93%
68 | O=C(O)C1CCCCC1C(=O)NCc1ccccc1 (stereo unspecified) | inconclusive: 105%
69 | O=S(=O)(c1ccccc1)N(CC(O)Cn1c2ccccc2c2ccccc21)c1ccccc1 (stereo unspecified) | inconclusive: 88%

Row | Structure (SMILES) | GTP binding activity
70 | O=C(O)c1cccc(S(=O)(=O)Nc2ccccc2Cl)c1 | inactive: 97%
71 | Oc1ccc2ccccc2c1C=Nc1ccc(Cl)cn1 | inactive: 93%
72 | O=C1c2[nH]nc(-c3ccccc3O)c2C(c2cccc(Cl)c2)N1CC1CCCO1 (stereo unspecified) | inconclusive: 94%
73 | O=C(Nc1ccccc1)Nc1cccc2nsnc12 | inconclusive: 95%
74 | NC(=O)NC(c1ccccc1)c1ccccc1F (stereo unspecified) | inconclusive: 103%
75 | NC(=O)Cn1nc([N+](=O)[O-])nc1Oc1ccc(Br)cc1 | inactive: 97%
76 | C=CCN(CC=C)S(=O)(=O)c1ccc(C(=O)Nc2nc3c(s2)CCc2ccccc2-3)cc1 | active: 39%
77 | O=c1c2c3c(sc2ncn1Cc1ccc(F)cc1)CCC3 | inconclusive: 93%
78 | Cn1c(SCC(=O)Nc2cccc(Br)c2)nnc1-c1cc2ccccc2o1 | inconclusive: 166%
79 | COc1cccc(NC(=O)COC(=O)/C=C/c2ccc(Cl)cc2Cl)c1 | active: 79%
80 | COc1ccc(OC)c(C2C3=C(COC3=O)Nc3cc4c(cc32)OCO4)c1 (stereo unspecified) | inconclusive: 88%
81 | CCCOc1ccc(C(=O)NNC(=S)NC(=O)c2cc(-c3ccccc3)nc3ccccc23)cc1 | inconclusive: 92%
82 | O=C(O)c1cccc(OCc2ccccc2Cl)c1 | inconclusive: 105%
83 | O=C(N/N=C/c1nn(-c2ccccc2)cc1-c1ccc(Cl)cc1)c1ccncc1 | inactive: 94%
84 | O=C(CSc1nnc(-c2cccs2)n1-c1ccccc1)NCc1ccc2c(c1)OCO2 | inconclusive: 100%
85 | COc1ccccc1N1CCN(CC(=O)NC(=O)NCc2ccco2)CC1 | inconclusive: 101%
86 | Cc1ccnc(NS(=O)(=O)c2ccc(NC(=O)c3ccc([N+](=O)[O-])s3)cc2)n1 | inactive: 95%
87 | Cc1ccc(C(=O)Nn2c(O)c(C=C3N=c4ccccc4=N3)sc2=S)cc1 | inactive: 81%
88 | Cc1cc(C)n2nc(SCC(=O)c3cc(C)n(CC4CCCO4)c3C)nc2n1 (stereo unspecified) | inactive: 98%
89 | COc1ccc(Br)cc1/C=N/NC(=O)c1ccc(OC)c(OC)c1 | inconclusive: 95%
90 | CCN(CC)c1ccc(-c2nn3c(-c4cccnc4)nnc3s2)cc1 | active: 73%
91 | O=C(c1ccccc1)c1ccc(OCCCN2CCCC2)cc1 | inconclusive: 102%
